Laboratory results published in the supplement of paper PMC4604168 (melanoma cell lines).
The list shows a part of the results. Many values rest on one well or one pass, so single values are uncertain.

system: IPC-298; assay: cell count relative to DMSO control; melanoma cells; higher = more viable cells; conditions: library dose: low library concentration; 72 h
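Note: cell number obtained by counting DAPI-stained nuclei in high-throughput microscope images with image analysis software, screen run in 1,536-well plates.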

| SMILES | cell count [%] |
| --- | --- |
| Cc1cc(Nc2cc(N3CCN(C)CC3)nc(Sc3ccc(NC(=O)C4CC4)cc3)n2)n[nH]1 [Tozasertib] + N.N.[Cl][Pt][Cl] [cisplatin] (first compound 0.006 µM, partner dose 1.6 µM) | 102 |
| COc1cc2ncnc(Nc3ccc(Oc4ccccc4)cc3)c2cc1OC + C/C(O)=C(\C#N)C(=O)Nc1cc(Br)ccc1Br [LFM-A13] (first compound 2 µM, partner dose 2 µM) | 94.3 |
| O=C(O)C(=O)Nc1sc2c(c1C(=O)O)CCNC2 + O=C(Oc1ccc([N+](=O)[O-])cc1)N1CCC(C(O)(c2ccc3c(c2)OCO3)c2ccc3c(c2)OCO3)CC1 [JZL184] (first compound 1.66667 µM, partner dose 1 µM) | 98.4 |
| CC(C)C[C@H](NC(=O)[C@H](Cc1ccccc1)NC(=O)c1cnccn1)B(O)O [Bortezomib] + N.N.[Cl][Pt][Cl] [cisplatin] (first compound 0.001 µM, partner dose 1.6 µM) | 84.4 |
| CC(C)C[C@H](NC(=O)[C@H](Cc1ccccc1)NC(=O)c1cnccn1)B(O)O [Bortezomib] + C[As](C)SC[C@H](NC(=O)CC[C@H](N)C(=O)O)C(=O)NCC(=O)O [Darinaparsin] (first compound 0.001 µM, partner dose 0.4 µM) | 73.1 |
| Cc1nc(Nc2ncc(C(=O)Nc3c(C)cccc3Cl)s2)cc(N2CCN(CCO)CC2)n1 [dasatanib] + C/C(O)=C(\C#N)C(=O)Nc1cc(Br)ccc1Br [LFM-A13] (first compound 0.004 µM, partner dose 2 µM) | 98.5 |
| Cn1c(Nc2ccc(C(F)(F)F)cc2)nc2cc(Oc3ccnc(-c4ncc(C(F)(F)F)[nH]4)c3)ccc21 + O=C(Oc1ccc([N+](=O)[O-])cc1)N1CCC(C(O)(c2ccc3c(c2)OCO3)c2ccc3c(c2)OCO3)CC1 [JZL184] (first compound 0.08 µM, partner dose 1 µM) | 59.1 |
| C#Cc1cccc(Nc2ncnc3cc(OCCOC)c(OCCOC)cc23)c1 [erlotinib] + C[As](C)SC[C@H](NC(=O)CC[C@H](N)C(=O)O)C(=O)NCC(=O)O [Darinaparsin] (first compound 0.8 µM, partner dose 0.4 µM) | 90 |
| Nc1ccn([C@@H]2O[C@H](CO)[C@@H](O)C2(F)F)c(=O)n1 [gemcitabine] + C[As](C)SC[C@H](NC(=O)CC[C@H](N)C(=O)O)C(=O)NCC(=O)O [Darinaparsin] (first compound 0.0004 µM, partner dose 0.4 µM) | 82.9 |
| COc1cc(N2CCC(N3CCN(C)CC3)CC2)ccc1Nc1ncc(Cl)c(Nc2ccccc2S(=O)(=O)C(C)C)n1 + O=C(Oc1ccc([N+](=O)[O-])cc1)N1CCC(C(O)(c2ccc3c(c2)OCO3)c2ccc3c(c2)OCO3)CC1 [JZL184] (first compound 0.08 µM, partner dose 1 µM) | 100 |
| Cn1c(Nc2ccc(C(F)(F)F)cc2)nc2cc(Oc3ccnc(-c4ncc(C(F)(F)F)[nH]4)c3)ccc21 + C/C(O)=C(\C#N)C(=O)Nc1cc(Br)ccc1Br [LFM-A13] (first compound 0.08 µM, partner dose 2 µM) | 58.5 |
| CO[C@H]1C[C@@H]2CC[C@@H](C)[C@@](O)(O2)C(=O)C(=O)N2CCCC[C@H]2C(=O)O[C@H]([C@H](C)C[C@@H]2CC[C@@H](OCCO)[C@H](OC)C2)CC(=O)[C@H](C)/C=C(\C)[C@@H](O)[C@@H](OC)C(=O)[C@H](C)C[C@H](C)/C=C/C=C/C=C/1C [everolimus] + C[As](C)SC[C@H](NC(=O)CC[C@H](N)C(=O)O)C(=O)NCC(=O)O [Darinaparsin] (first compound 0.02 µM, partner dose 0.4 µM) | 71 |
| C=CCn1c(=O)c2cnc(Nc3ccc(N4CCN(C)CC4)cc3)nc2n1-c1cccc(C(C)(C)O)n1 + O=C(Oc1ccc([N+](=O)[O-])cc1)N1CCC(C(O)(c2ccc3c(c2)OCO3)c2ccc3c(c2)OCO3)CC1 [JZL184] (first compound 0.02 µM, partner dose 1 µM) | 98.3 |
